Source: the supplement of paper PMC3334620
In all, about 33,000 sequences were measured (“E-score (-0.5 to 0.5)”: median about -0.041, highest 2% from about 0.37 on). This is one part of the list.

Each sequence was assayed against T1, Ecm22 (UniProt Q05958) (assay: PBM E-score (8-mer binding enrichment) (E-score (-0.5 to 0.5)); higher = stronger / more preferred TF binding; most listed sequences are background and not binding sites). Conditions: protein concentration: 200 nM; construct: GST-full length.
T1 sequence: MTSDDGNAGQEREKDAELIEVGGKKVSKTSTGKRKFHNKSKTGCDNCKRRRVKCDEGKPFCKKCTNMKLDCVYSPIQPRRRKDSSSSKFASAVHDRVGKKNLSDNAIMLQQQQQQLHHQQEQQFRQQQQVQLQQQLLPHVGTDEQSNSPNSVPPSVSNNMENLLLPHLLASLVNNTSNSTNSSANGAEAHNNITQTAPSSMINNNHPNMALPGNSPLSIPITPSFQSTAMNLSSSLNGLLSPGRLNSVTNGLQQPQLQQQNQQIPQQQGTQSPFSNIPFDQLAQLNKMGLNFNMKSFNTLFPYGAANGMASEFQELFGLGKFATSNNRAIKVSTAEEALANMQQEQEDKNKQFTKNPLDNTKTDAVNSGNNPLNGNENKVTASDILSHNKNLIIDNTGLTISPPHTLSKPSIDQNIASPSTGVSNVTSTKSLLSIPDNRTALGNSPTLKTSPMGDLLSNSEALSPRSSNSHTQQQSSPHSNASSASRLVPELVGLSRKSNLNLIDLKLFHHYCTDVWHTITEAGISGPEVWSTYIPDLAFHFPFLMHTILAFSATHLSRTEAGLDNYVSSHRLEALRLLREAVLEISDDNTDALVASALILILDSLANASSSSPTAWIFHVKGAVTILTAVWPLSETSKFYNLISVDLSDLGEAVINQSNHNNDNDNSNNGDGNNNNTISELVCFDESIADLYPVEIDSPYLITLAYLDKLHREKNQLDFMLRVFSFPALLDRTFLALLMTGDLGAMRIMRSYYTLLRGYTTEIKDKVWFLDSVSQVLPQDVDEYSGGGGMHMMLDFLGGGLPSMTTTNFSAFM
Experimental: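 Universal 'all 10-mer' protein binding microarrays (Agilent AMADID 015681) probed with GST-tagged S. cerevisiae TFs (full-length or DBD) made by in vitro transcription/translation (PURExpress), about 100-200 nM. Bound TF was detected with fluorescent anti-GST. Each ungapped 8-mer (which stands for itself and its reverse complement) is scored by the PBM enrichment score (E-score), a modified Wilcoxon-Mann-Whitney statistic from -0.5 to +0.5, computed with the Universal PBM Analysis Suite. Scale: above 0.35 generally sequence-specific binding.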

| Sequence | PBM E-score |
| --- | --- |
| AAGATCGT | 0.357 |
| CGGAATAA | -0.0676 |
| ATGGTAAA | -0.0721 |
| CACACAGG | -0.0151 |
| GTGTGTGA | -0.00185 |
| GAATGGTA | -0.174 |
| ATGGCAAC | -0.0475 |
| AAATCGTA | 0.393 |
| GTTCTTCA | 0.159 |
| CGCTGTCA | -0.198 |
| ACCAGTTA | -0.13 |
| AATCCTCG | 0.178 |
| CCGTTTAA | 0.441 |
| AGTGTCTC | -0.13 |
| ACAGACTC | -0.123 |
| GATGTTGC | 0.00895 |
| GCTGCCAA | -0.174 |
| CACCCACG | 0.141 |
| ATATGGCA | 0.0782 |
| TACGTGGA | 0.149 |
| CCTTGTCC | -0.19 |
| AGTCAGCA | -0.209 |
| ACAGGGGA | -0.106 |
| CGTTGAAG | 0.0641 |
| AGCTTAAT | 0.0921 |

| Sequence | PBM E-score |
| --- | --- |
| CTCTGCTC | -0.0585 |
| CCTCTAGA | -0.211 |
| GCGAGTAC | 0.324 |
| ATACTTGC | -0.099 |
| CCGAGGCC | 0.117 |
| CAACTGTC | -0.242 |
| ATACTTCC | -0.0486 |
| GACTGGGC | -0.249 |
| ATACGAGA | 0.484 |
| ACGTGGGG | -0.136 |
| GAATACTC | 0.0101 |
| CGATCTGC | 0.0941 |
| GCGAGGTA | 0.285 |
| GTCGATGA | 0.0278 |
| AGGTCAGA | -0.204 |
| ATGCTCGG | 0.106 |
| TTAGTCAA | -0.147 |
| CTCCCGGC | -0.113 |
| CGTTGTCA | 0.0335 |
| AAACGTCT | 0.149 |
| AAGTGGAT | -0.147 |
| CCGTGACA | -0.158 |
| AGGCTTTG | -0.0925 |
| CGGGTGGC | 0.0254 |
| GATCTGTA | -0.0176 |

| Sequence | PBM E-score |
| --- | --- |
| AGGTCATG | -0.106 |
| GTATCTGA | 0.16 |
| AAGGTGGG | -0.279 |
| AACCTAAC | -0.0329 |
| TGCCCAAA | -0.183 |
| CCAGATAA | 0.0609 |
| GGCATTTA | -0.303 |
| ATGTGTAC | 0.17 |
| AGCACTAC | -0.196 |
| ATGAGCTG | -0.115 |
| AAGTGCCT | -0.14 |
| ACCCTGCG | -0.118 |
| ATTCGCCC | -0.205 |
| ATTAGCTA | -0.0396 |
| CAACCGGC | -0.067 |
| CAAGCAGA | -0.0616 |
| ATAGCGCC | -0.144 |
| GCGGAGGA | -0.0792 |
| AAACGGAA | 0.315 |
| CAACTAAC | 0.0369 |
| CCAGACGC | -0.272 |
| ACGCGTGG | 0.0106 |
| CCTATGGA | -0.192 |
| CCTGGTGC | -0.129 |
| AGTCCCAG | -0.0584 |

| Sequence | PBM E-score |
| --- | --- |
| AAAAAATT | -0.0574 |
| CCGTTAAC | 0.198 |
| GGGCCGCA | -0.0705 |
| AGTTGGAC | -0.241 |
| CTCCTTGA | -0.214 |
| CACCAGGG | -0.226 |
| CATGTTGG | -0.189 |
| GGCAATCA | -0.144 |
| ACCAAGCT | -0.0917 |
| ACGAGTAT | 0.382 |
| AAATGAAG | 0.126 |
| ACTGCTGA | -0.19 |
| AACGCGCA | 0.0254 |
| ACAAACCA | -0.187 |
| ATACCCTG | 0.0413 |
| AGATCAAA | -0.111 |
| CCTGTAGA | -0.254 |
| GCCATCTA | -0.239 |
| AGAATAAG | -0.163 |
| CTAAGCCA | -0.267 |
| ACTCCACG | -0.0229 |
| ATAATAAC | 0.126 |
| CTGAGTAA | -0.28 |
| CGTGACAC | 0.0275 |
| TATAGAGA | -0.0328 |

| Sequence | PBM E-score |
| --- | --- |
| CGCGACTC | 0.0599 |
| CCATTTCA | -0.31 |
| AGCAGATG | -0.176 |
| AATCGAAA | 0.00057 |
| CTCATGTA | -0.011 |
| GCAACGAC | 0.417 |
| AAAGCGGG | -0.194 |
| CAAGAGTA | -0.0598 |
| CCGACTCA | -0.0201 |
| CGATCGGA | 0.13 |
| GAGACCAC | -0.0569 |
| AGTTTGTA | -0.0485 |
| CGATTACG | 0.222 |
| CGTATTCA | 0.297 |
| ATATCGAC | 0.0252 |
| AGGTTGAT | -0.144 |
| ATACCAGC | -0.226 |
| GACCTACC | 0.0336 |
| ATTTGAAG | -0.0985 |
| GAGGTCCC | -0.11 |
| TACTAGTA | -0.0318 |
| AATTATCG | 0.137 |
| TGCGCACA | -0.0564 |
| ATATTACC | -0.0733 |
| GAGTTCGA | 0.161 |

| Sequence | PBM E-score |
| --- | --- |
| AATCGGGG | -0.161 |
| CGCGGGGC | -0.15 |
| GCTAGCAA | -0.0688 |
| AGAAGAAA | 0.0696 |
| AATATAGC | -0.0398 |
| ACTAGAGC | -0.15 |
| CAGCCGCC | -0.103 |
| GCTCTCGA | -0.189 |
| ACATAGGA | -0.0572 |
| AGTACGAG | 0.456 |
| CGACTTAG | 0.21 |
| AACGGCGT | 0.242 |
| GCTAACTA | 0.0361 |
| GCCCCTTA | -0.199 |
| ACTCTTCG | 0.173 |
| GCCCTAAA | -0.212 |
| GAGTTTAC | 0.108 |
| ACTCCAGT | -0.144 |
| CTACTGTC | -0.113 |
| ACCAAACG | 0.348 |
| ACTAACAT | 0.0647 |
| CTACACTC | -0.0285 |
| TGCTACCA | -0.128 |
| ACCTCTTG | -0.201 |
| TAGCACGA | 0.0752 |

| Sequence | PBM E-score |
| --- | --- |
| AACCCGAA | 0.188 |
| AATCGAAG | 0.0902 |
| ATGGCTGA | -0.154 |
| CGCCGGAC | -0.11 |
| CACTCCGG | 0.0206 |
| CAATCCTG | -0.168 |
| ATTTGCGG | 0.0753 |
| CCGATGCC | -0.115 |
| TAGCGAGA | 0.235 |
| AACCCTCT | -0.256 |
| AGCCTAGC | -0.209 |
| CCGCGTCA | -0.051 |
| AGACCCGA | 0.175 |
| GACTATCC | -0.0271 |
| ATTAGTAG | -0.169 |
| ACACCTCT | -0.16 |
| CAGAGACA | -0.303 |
| CTCCCATC | -0.124 |
| GCCACGGA | -0.232 |
| AACAACTT | -0.092 |
| CGGCCTCA | 0.0418 |
| ACAACTTC | 0.0243 |
